The whole screen tested about 410,000 compounds, of which about 7,200 (1.8%) were called active. Inconclusive means that the source gave no clear call. Such entries were picked first, then a sample of the others. Calls come from the whole dose curve; as a rule, active = well fitted activation curve with a large enough effect; inconclusive = small, poorly fitted or top-dose-only effect, or another doubt; inactive = no such curve, though single readings can be large or run the other way. Potencies of inconclusive entries are doubtful fits and often do not repeat.
Assay: qHTS of TDP-43 Inhibitors; note: nearly all actives have a fitted effect of over 50% in size; for growth rescue (activation): % of control where 0% means no effect
Conditions: TDP-43 expressing yeast growth rescue, BacTiter-Glo, 24 h; growth rescue (activation): at 46.1 µM (top of the series) unless noted
Summary of the method: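 In this qHTS, compounds that restore growth of yeast expressing TDP-43 appear as activators. Cells (OD600=0.02, galactose medium, raffinose-pregrown) are incubated with compound 24 hr at 30 deg C and growth is quantified by BacTiter-Glo.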
Potency is the fitted concentration of half-maximal effect; tags give direction and shape of the fitted curve.

Potency, active:
COc1cccc(C2CC(c3cccc(Br)c3)n3ncnc3N2)c1 (stereo unspecified) 20 µM, O=C(CSc1nnc2ccc3ccccc3n12)Nc1ccccc1Cl 17.8 µM, CC(NC(=O)CCCCCCN1C(=O)c2ccccc2C1=O)c1ccc2c(c1)CCCC2 (stereo unspecified) 35.5 µM, Cc1noc(C)c1COC(=O)Cc1ccc(Cl)c(Cl)c1 10 µM, CCc1ccc(C(C)NC(=O)c2cc(C)oc2C)cc1 (stereo unspecified) 12.6 µM, O=C(c1ccc2c(=O)n3c(nc2c1)CCCCC3)N1CCN(c2cccc(Cl)c2)CC1 35.5 µM, Cc1ccc(SC2=C(C(=O)O)CCCC2)cc1 10 µM, COc1ccc(C(=S)N2CCN(c3ccccc3Cl)CC2)cc1OC 11.2 µM, O=C(NNc1nc2c(F)cccc2s1)c1ccc(F)cc1 10 µM, CCc1cc(C(=O)Cc2ccc(F)cc2)c(O)cc1O 12.6 µM, CCOc1cc(N2CCOCC2)c(OCC)cc1NC(=O)COC(=O)CCOc1ccc(C(C)(C)C)cc1 22.4 µM, COC(=O)c1cccc(NC(=O)c2cccc([N+](=O)[O-])c2)c1 12.6 µM, CC(C)N(Cc1ccccc1)C(=S)NC(=O)C1(C)CC1(Cl)Cl (stereo unspecified) 35.5 µM, Cc1nc(C(=O)Nc2cc(F)cc(Cl)c2)sc1C1(C)CC(c2ccccc2)=NO1 (stereo unspecified) 12.6 µM, O=C(c1ccc(COc2ccc(Cl)cc2Cl)o1)N1CCCC1 12.6 µM, O=C(Nc1ccsc1C(=O)NC1CC1)c1ccccc1 12.6 µM

Potency, inconclusive:
O=[N+]([O-])c1c(NCc2ccco2)ccc2nonc12 14.1 µM [activator, partial curve], CCc1ccc(-c2cn(C3CCCCC3)c(=S)[nH]2)cc1 8.91 µM [activator, partial curve], COc1ccc(S(=O)(=O)NC(=O)C2(C)CCN2C(=O)Cc2ccc(-c3ccccc3)cc2)cc1 (stereo unspecified) 11.2 µM [activator, partial curve], COc1ccc(-c2nnc(N)s2)cc1 35.5 µM [activator, single point], COc1ccc2c(c1)O[C@@]1(CCCC[C@@H]1C)CC2=O 35.5 µM [activator, single point], CC(NC(=O)c1sc2ccccc2c1Cl)C1CCCO1 (stereo unspecified) 20 µM [activator, single point], Cc1ccc2nc(NC(=O)c3ccc(Cl)s3)sc2c1 0.141 µM [activator, full curve, poor fit], CN(C)c1ccc(/C=N/NC(=O)C(=O)/C=C2\NC3(CCCC3)Cc3ccccc32)cc1 20 µM [activator, single point], Cc1cccc(NC(=O)Nc2nnc(N3CCCCC3C)s2)c1C (stereo unspecified) 1.26 µM [activator, partial curve], Cc1nn(-c2ccccc2)c(C)c1C(=O)Oc1ccccc1 15.8 µM [activator, single point], CCOc1ccc(C2CC(c3c(O)n(C4CCCCC4)c(=O)[nH]c3=O)=Nc3ccccc3S2)cc1 (stereo unspecified) 1.12 µM [activator, partial curve], Cn1c(SCc2cc(=O)n3cc(Br)ccc3n2)nnc1C1COc2ccccc2O1 (stereo unspecified) 15.8 µM [activator, single point], O=C(c1nc(-c2ccc(Cl)cc2)n2c1CCCCC2)N1CCN(c2ccccc2)CC1 6.31 µM [activator, partial curve, poor fit], COc1ccc(-c2cc(C(=O)NNC(=O)c3csc(N4CCOCC4)n3)c3ccccc3n2)cc1 20 µM [activator, partial curve], CCOc1ccccc1N(C(=O)c1snc(C(N)=O)c1N)C(C(=O)NC1CCCC1)c1ccco1 (stereo unspecified) 3.16 µM [activator, partial curve], c1cc(-c2n[nH]c(-c3ccncc3)n2)ccn1 4.47 µM [activator, partial curve], O=S(=O)(Nc1ccc2c(c1)oc1ccccc12)N1CCCC1 31.6 µM [activator, single point], CC(=O)/C(=N\Nc1ccccc1)Sc1cccc2cccnc12 2.82 µM [activator, full curve, poor fit], Cc1ccc(Cn2ccc(NC(=O)c3cc(C4CC4)on3)n2)cc1 11.2 µM [activator, partial curve], C=CCNC(=S)NC(=O)c1ccc(C)c(Br)c1 17.8 µM [activator, single point], COc1ccc(OC)c(NC(=O)CSc2ccc(-c3sc(C)nc3C)nn2)c1 7.94 µM [activator, full curve, poor fit], Cc1ccc(C)c(N2CCN(C(=O)NCc3noc4ccc(C)cc34)CC2)c1 11.2 µM [activator, partial curve], CC1=NN(C(N)=S)C(=O)C1N=Nc1ccc(Br)cc1 (stereo unspecified) 20 µM [activator, single point], CC(=O)c1ccc(S(=O)(=O)N2CCc3ccccc3C2)cc1 14.1 µM [activator, partial curve], COc1ccc(CNC(=O)c2cn(Cc3ccccc3F)c(=O)s2)cc1 28.2 µM [activator, partial curve], CCOc1ccc(C(=O)c2cc([N+](=O)[O-])ccc2Cl)cc1 12.6 µM [activator, single point], COc1cccc(-c2csc(N3CCN(C(=S)Nc4ccccc4OC)CC3)n2)c1 22.4 µM [activator, single point], COC(=O)C1=NN(C(=O)c2cccc(Cl)c2)C(O)(C(C)(C)C)C1 (stereo unspecified) 14.1 µM [activator, partial curve, poor fit], CNC(=S)N(Cc1ccc(Cl)cc1)Cc1cccs1 20 µM [activator, single point], Cc1cc(C)c(S(=O)(=O)Nc2nnc(C3CCCCC3)s2)c(C)c1 22.4 µM [activator, single point], Cc1ccc(S(=O)(=O)Cc2ccc(C(=O)N3CCN(c4cccc(Cl)c4)CC3)o2)cc1 15.8 µM [activator, single point], COc1nccc(Nc2ccccc2)c1C#N 35.5 µM [activator, single point], Cc1ccc(C)c(Cn2c(=O)n(C(C)C)c(=O)c3oc4ccccc4c32)c1 0.891 µM [activator, full curve], C[C@H](CO)N1C[C@H](C)[C@@H](CN(C)Cc2ccc(-c3ccccc3)cc2)Oc2c(NS(=O)(=O)c3cccs3)cccc2C1=O 10 µM [activator, partial curve, poor fit], CCC(C)(C)c1ccc(Oc2ccc(NC(=O)COC(=O)C3=COCCO3)cc2)cc1 31.6 µM [activator, single point], COc1ccc(-c2nc3c(Cl)cc(C(F)(F)F)cn3c2Cc2ccsc2)cc1OC 11.2 µM [activator, partial curve], O=C(NC(=S)Nc1ccccc1N1CCCC1)c1ccco1 14.1 µM [activator, single point], COc1ccccc1C(=O)NNC(=O)c1cccc(C)c1 11.2 µM [activator, partial curve], COc1ccc(C(=O)c2oc3ccccc3c2N)cc1 35.5 µM [activator, single point], CCCNC(=O)C(Sc1ccccc1)c1ccccc1 (stereo unspecified) 25.1 µM [activator, partial curve, poor fit], COc1ccc2[nH]c3c(c2c1)CCN(C(=O)c1cccc(Cl)c1)C3c1ccc(F)cc1 (stereo unspecified) 20 µM [activator, partial curve], CC(C)CCNc1ncnc2c1cnn2Cc1ccccc1Cl 11.2 µM [activator, partial curve], Cn1nc(C2CC2)cc1NC(=O)C1(C)CCN1C(=O)Cc1ccc(-c2ccccc2)cc1 (stereo unspecified) 35.5 µM [activator, single point]

Growth rescue (activation), inactive:
COc1ccc(/C=C/C(=O)Oc2ccc(C=O)cc2OC)cc1 27.9%, COc1ccc2c(c1)C(c1ccccc1)NC(=O)C2 (stereo unspecified) -1.31%, O=C(Cc1ccc(F)cc1)NCc1ccc2c(c1)CCN2C(=O)c1ccc(F)cc1 23%, CCc1ccc(-n2nc(CO)c(C(=O)NCCCc3ccccc3)n2)cc1 10.4%, C[C@H](CO)N1C[C@H](C)[C@@H](CN(C)C(=O)Nc2ccc(C(F)(F)F)cc2)Oc2c(cccc2N(C)C)C1=O -0.456%, O=C(Cn1c(=O)n(-c2ccc(Cl)cc2)c(=O)c2sc3ccccc3c21)NC1CCCC1 18.4%, CCc1nn(CC(=O)N2CCCCC2)c(=O)c2cc3sc(C)cc3n12 11.8%, CCOc1ccc(NC(=O)c2ccc3c(c2)CCN3S(=O)(=O)CC)cc1 -9.43%, COc1ccc(C(=O)NCC2(c3ccccc3)CCCC2)c(OC)c1 13.3%, O=C(CC1C(=O)N(c2ccccc2)C(=O)N1Cc1ccc(F)cc1)Nc1cccc(F)c1 (stereo unspecified) 2.19%, COc1ccc(-c2cn3cccnc3n2)cc1NC(=O)Nc1ccc(Cl)cc1 10.1%

Growth rescue (activation), inconclusive:
CCOc1ccc(-c2cccc(NC(=O)c3ccc(Br)o3)c2)nn1 40.2% [activator]

Source: PubChem BioAssay AID652104 (National Center for Advancing Translational Sciences (NCATS), 2013)
